{
  "source": "paper PMC7791157",
  "about": "(Cell Research, 2021)",
  "binders": {"B1": {"name": "His-tagged AXL ([…]) (domain or fragment)", "chain": "not shown", "notes": "also called recombinant His-tagged AXL; His-AXL"}},
  "biological_target": "T1, FLAG-tagged SARS-CoV-2 S (SARS-CoV-2)",
  "T1 construct": "also called S glycoprotein",
  "test": "pull-down",
  "conditions": "both partners purified",
  "data": [
    {"binder": "B1", "values": [
      {"measurement": "binding result", "value": "binds"}
    ]}
  ]
}
